# From PubChem BioAssay AID1347165 (National Center for Advancing Translational Sciences (NCATS), 2019)
# About 5,700 (2.6%) of roughly 220,000 compounds were called active. The inconclusive results got no clear call from the source; some entries with a clear call stand among them for comparison. The call rests on the fitted dose curve; in most records, active means well fitted inhibition curve with a large enough effect; inconclusive means small, poorly fitted or top-dose-only effect; inactive means no such curve, though single readings can be large or run the other way. Where the call is inconclusive, the potency comes from a doubtful curve fit.
# Target: Lysine-specific demethylase 5B (Homo sapiens) (UniProt Q9UGL1)
# Assay: Primary screen for KDM5B Histone Demethylases FDH-coupled qHTS; further: nearly all actives have a fitted effect of over 70% in size
# Settings: FDH-coupled NADH fluorescence (FDH is formaldehyde dehydrogenase); series mostly up to 57.7 µM
# Procedure, shortened: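 Inhibition is measured as reduced NADH fluorescence generation from FDH coupling to formaldehyde release. Truncated KDM5BΔAP at 200 nM final acts on H3K4me3 peptide (12.5 µM in substrate mix) in pH 7.5 HEPES buffer with Tween-20, 30 min, room temperature.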
# Potency means the concentration at half of the fitted maximal effect; tags describe the fitted curve by direction and shape.
# UniProt Q9UGL1, sequence (Q9UGL1 whole entry, looked up): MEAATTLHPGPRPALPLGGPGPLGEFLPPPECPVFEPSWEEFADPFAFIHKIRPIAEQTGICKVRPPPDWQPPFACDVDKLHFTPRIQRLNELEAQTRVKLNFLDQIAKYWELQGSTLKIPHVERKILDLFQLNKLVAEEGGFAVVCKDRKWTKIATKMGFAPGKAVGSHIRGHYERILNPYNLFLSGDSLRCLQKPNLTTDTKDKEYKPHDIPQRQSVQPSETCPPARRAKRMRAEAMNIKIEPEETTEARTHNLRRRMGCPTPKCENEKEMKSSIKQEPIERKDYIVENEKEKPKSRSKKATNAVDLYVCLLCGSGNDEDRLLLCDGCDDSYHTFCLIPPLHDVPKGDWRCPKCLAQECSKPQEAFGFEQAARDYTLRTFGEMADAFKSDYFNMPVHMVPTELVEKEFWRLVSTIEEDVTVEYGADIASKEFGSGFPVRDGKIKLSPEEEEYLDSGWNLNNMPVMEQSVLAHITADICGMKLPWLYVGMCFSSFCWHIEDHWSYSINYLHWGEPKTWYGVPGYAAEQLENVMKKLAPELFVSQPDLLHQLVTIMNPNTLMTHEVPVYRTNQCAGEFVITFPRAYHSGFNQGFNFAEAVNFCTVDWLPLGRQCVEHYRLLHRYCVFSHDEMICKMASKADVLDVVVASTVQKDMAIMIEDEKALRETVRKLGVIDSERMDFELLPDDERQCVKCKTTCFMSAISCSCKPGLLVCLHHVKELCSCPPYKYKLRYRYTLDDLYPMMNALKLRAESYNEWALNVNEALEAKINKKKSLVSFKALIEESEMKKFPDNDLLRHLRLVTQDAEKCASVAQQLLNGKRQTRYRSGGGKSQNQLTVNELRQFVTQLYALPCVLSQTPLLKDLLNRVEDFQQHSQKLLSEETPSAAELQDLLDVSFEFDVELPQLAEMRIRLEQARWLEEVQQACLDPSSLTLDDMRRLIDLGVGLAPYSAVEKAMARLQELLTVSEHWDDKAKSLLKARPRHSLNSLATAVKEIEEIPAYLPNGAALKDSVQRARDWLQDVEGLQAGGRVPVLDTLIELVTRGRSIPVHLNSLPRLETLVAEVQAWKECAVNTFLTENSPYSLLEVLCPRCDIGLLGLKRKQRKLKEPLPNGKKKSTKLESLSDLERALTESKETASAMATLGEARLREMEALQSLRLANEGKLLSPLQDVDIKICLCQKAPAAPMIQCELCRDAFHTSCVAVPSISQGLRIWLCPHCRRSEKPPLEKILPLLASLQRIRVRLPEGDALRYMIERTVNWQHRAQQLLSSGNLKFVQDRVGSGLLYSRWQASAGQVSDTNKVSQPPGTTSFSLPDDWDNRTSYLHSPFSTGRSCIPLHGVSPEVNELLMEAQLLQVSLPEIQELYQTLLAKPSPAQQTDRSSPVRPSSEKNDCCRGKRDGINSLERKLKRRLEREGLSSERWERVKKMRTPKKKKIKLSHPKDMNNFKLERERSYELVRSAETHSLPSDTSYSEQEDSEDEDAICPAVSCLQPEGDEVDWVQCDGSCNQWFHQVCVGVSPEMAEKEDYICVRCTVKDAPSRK
row,Structure (SMILES),Potency
1,COc1ccccc1C1=NS(=O)(=O)N(C)C(C(=O)Nc2cc(OC)c(OC)c(OC)c2)=C1,inactive
2,COc1ccc2[nH]c(=O)c(CN(C)C(=O)c3ccccn3)cc2c1,"inconclusive: 31.6 µM [inhibitor, partial curve, poor fit]"
3,CC(C)Cn1cc(NC(=O)NCc2ccccc2)c2ccccc2c1=O,"inconclusive: 2.51 µM [inhibitor, full curve, poor fit]"
4,O=C(Nc1cccc(Cl)c1F)C1CC(=O)N(C2CCCC2)C1 (configuration not stated),inactive
5,Cc1nc2nc(SCC(=O)Nc3cccc(Cl)c3)nn2c(C)c1Cc1ccccc1,"inconclusive: 39.8 µM [inhibitor, partial curve, poor fit]"
6,O=C(N/N=C/c1ccc2c(c1)OCO2)c1ccc2c(c1)OCO2,"inconclusive: 39.8 µM [inhibitor, partial curve, poor fit]"
7,O=C(NCCc1ccccn1)c1nc(-c2ccccc2)cc2[nH]ccc12,inactive
8,Cc1ccccc1CNC(=O)c1cccc(NC(=O)c2nsc3ccccc23)c1,"inconclusive: 39.8 µM [inhibitor, single point]"
9,COc1ccc(-c2nc(C)c(CCNC(=O)c3ccc(F)c(F)c3)s2)cc1,"inconclusive: 22.4 µM [inhibitor, partial curve, poor fit]"
10,Cn1cc(CN2C[C@H](C(=O)Nc3ccncn3)C[C@@H]2c2cccc(C(F)(F)F)c2)cn1,inactive
11,Cc1nc(-c2cn(C3CCCN(C(=O)c4cccs4)C3)nn2)no1 (configuration not stated),inactive
12,CC(=O)Nc1cc(C(=O)NCCC2=CCCCC2)ccc1Sc1ccc(C)cc1,inactive
13,CCCCOc1ccc(CNC(=O)c2ncoc2-c2cccs2)cc1,"inconclusive: 35.5 µM [inhibitor, partial curve, poor fit]"
14,Cc1ccccc1C(=O)N1CCN(c2cc(-c3ccccc3)[nH]n2)CC1,"inconclusive: 31.6 µM [inhibitor, single point]"
15,COCCN1Cc2cccc(C(=O)Nc3ccc(C)c(F)c3)c2C1=O,"inconclusive: 28.2 µM [inhibitor, partial curve, poor fit]"
16,O=C1c2cc(N3CCOCC3)nc(-c3cccc(F)c3)c2CN1CC1CC1,active: 35.5 µM
17,COc1ccccc1CN1CCN(C(=O)CCC[C@H]2NC[C@@H]3C[C@H]2CN(Cc2ccccc2)C3)CC1,"inconclusive: 14.1 µM [inhibitor, partial curve]"
18,COc1ccc(CN2CCc3nc(Nc4ccccc4)ncc3C2)c(OC)c1OC,"inconclusive: 17.8 µM [inhibitor, partial curve, poor fit]"
19,Cc1ccc(NC(=O)C2CCCN(c3cnc4nccnc4c3)C2)cc1Cl (configuration not stated),inactive
20,COc1cc(N2C(=O)CSC23C(=O)N(C)c2ccccc23)cc(OC)c1OC (configuration not stated),inactive
21,CCOc1ccc(N2CC(C)Cn3c2nc2c3c(=O)n(CC(=O)O)c(=O)n2C)cc1 (configuration not stated),"inconclusive: 28.2 µM [inhibitor, partial curve, poor fit]"

row,Structure (SMILES),Potency
1,O=C([C@@H]1C[C@H](Oc2ccccc2)CN1C(=O)CC1CCCC1)N1CCOCC1,inactive
2,O=C(c1ccccn1)N(Cc1cccs1)C1CC1,inactive
3,CN(C(=O)CSc1nc2ccc(NC(=O)c3ccccc3F)cc2s1)c1ccccc1,"inconclusive: 39.8 µM [inhibitor, single point]"
4,N#CC1(NC(=O)CSc2cccc3cccnc23)CCCCCC1,"inconclusive: 31.6 µM [inhibitor, partial curve, poor fit]"
5,Cc1ccc(NC(=O)Cn2nc(-c3ccco3)ccc2=O)cc1,"inconclusive: 20 µM [inhibitor, single point]"
6,Cc1ccc(NC(=O)Cn2c(CCC(=O)O)ccc2-c2cccs2)cc1Cl,"inconclusive: 25.1 µM [inhibitor, partial curve, poor fit]"
7,O=C(NC1CCCCC1)N1CCC(c2nnc3n2CCNC3)CC1,"inconclusive: 56.2 µM [inhibitor, partial curve, poor fit]"
8,COc1ccc(N2C(=O)CCS2(=O)=O)cc1S(=O)(=O)N1CCCc2ccccc21,inactive
9,CCNS(=O)(=O)c1cc(-c2nnc(Nc3cccc(C(F)(F)F)c3)c3ccccc23)ccc1C,"inconclusive: 15.8 µM [inhibitor, partial curve, poor fit]"
10,CC(C)NC(=O)c1nc(-c2ccc(F)cc2)c2ccccn12,active: 35.5 µM
11,CC1=C[C@@H](CN2CCN(C)CC2)[C@H](C(C)C)C[C@H]1Cc1nnc(-c2ccc(N(C)C)cc2)o1,"inconclusive: 25.1 µM [inhibitor, single point]"
12,CCOc1cc(C2C(C(=O)Nc3ccccc3)=C(C)Nc3ncnn32)cc(Br)c1O (configuration not stated),"inconclusive: 35.5 µM [inhibitor, single point]"
13,CCOC(=O)c1cnc2c(OC)cccc2c1Nc1ccccc1,inactive
14,COc1ccc(CN2C[C@@H](F)[C@@H](OCc3nc4ccccc4n3C)C2)cn1,inactive
15,FC(F)(F)c1ccc(-c2noc([C@@H]3Cc4nc[nH]c4CN3CC3CCCCC3)n2)cc1,"inconclusive: 31.6 µM [inhibitor, partial curve, poor fit]"
16,CCN(c1ccc(Cl)cc1)S(=O)(=O)c1nnc(NC(=O)c2ccco2)s1,"inconclusive: 15.8 µM [inhibitor, partial curve, poor fit]"
17,COc1ccc(OC)c(CNC(=O)c2ccc(Sc3ccc(Cl)cc3)c(NC(C)=O)c2)c1,"inconclusive: 3.16 µM [inhibitor, full curve, poor fit]"
18,O=C(NCCc1ccccc1)c1ccc(Cn2c(=O)c3cccn3c3cccnc32)cc1,"inconclusive: 39.8 µM [inhibitor, single point]"
19,O=C(Nc1cccc(Cl)c1)N[C@H]1C[C@H]2C(=O)NC[C@@H](CCC(=O)N3CCC(O)CC3)N2C1,inactive
20,CNC(=O)[C@@H](CC(C)C)N1CCC[C@H]1C(=O)N1CCN(C)CC1,"inconclusive: 39.8 µM [inhibitor, partial curve, poor fit]"
21,O=C(Nc1cnc(-c2ccccc2)nc1)c1ccccc1,inactive
